# Test results from the supplement of paper PMC12632987.
# In all, about 4,500 sequences were measured (“median log2 fold change of GCK-ALFA target abundance (FLAG IP / Myc IP barcode read proportion)”: median about 0.078, lowest 2% from about -0.6 on). The list shows a part of the results.
# B1: GBRAP_125_3021 (protein)
# chain: SKEELVEDLKAIAKALGFSEEDVEEIGELARKHGIKGTLIAIALALGEEELADLLEKLSEEEVEEVVRRLAAWLKANPNATPEEVKAKLLELAKEAVAKR
# B2: GBRAP_160_4453 (protein)
# chain: SEKLEELLKKVEEIREEAIELIEGQSHEERVVVVAVEFGALILELSSDESVSDELEDEVAEIVDELVATLKANPDLSEEEVKELIKEAAEKIKEALKKYL
# B3: GBRAP_166_4903 (protein)
# chain: SREEKIKELKKEIEELIEKYKEADEETQLELLIEIGEKLRELKKLGMSMEEILELVRKALEAAKEAGASVRVAAGIIAEEAEFDEEEIDKLDEIAKEVEA
# B4: GBRAP_83_6872 (protein)
# chain: AEKITVATTGDNIDSAVDAAIDLSKEEGYDVTLEILARPEDFERVLEAAKRLAEAKVEMELVVILEGATPEEAKELEARLKEIFKEAGVNNKIEVILVEP
# B5: GBRAP_53_6411 (protein)
# chain: AAATIAALKAQARALAKEAAAADDATRAALVAEIGAVLAALKAAGAPEEELTALAKEIARLLKAAGAPDSALVALAAELAALGLEEATAEVAEEAVEELE
# B6: GBRAP_139_3762 (protein)
# chain: DEREKIVEKARELTKKLAEGDEKAAEELAKLVKSVDDETLKAIADAIRKALQGLDPDTIEKMRDILEEEMKKVGASEEDILLIEGAIDAAEAEAIVAELA
# B7: GBRAP_160_4207 (protein)
# chain: SEKIEKIIKSLKEETERVKKLIPEESVEEVANALDVEIGSVLLEASELGEENEEIEDTIAKAADDGVKLLRENPDASPEELAAGLDKIAEEAIKKIKEIS
# B8: GBRAP_84_7004 (protein)
# chain: EREEKILEITKKILEKSSIELKQKLLAYLLLKNENKAATLALNDLLAEDPEAAVEALDLATEAYEEGKEEEVEKELLELAKKEGEEVYELVEELLELIEE
# B9: GBRAP_160_4466 (protein)
# chain: AESAKEVAADLRADVDATLAETADESPVQIALAAAVTVGSNLMEAISEGKVTDEQEDLMIAAMDEIRALAAEEPDASPEAVIARIRAIIEATVAAILAAA
# B10: GBRAP_160_4738 (protein)
# chain: EERIKELVERARETLLEALELSEGESREERAAIFRGAAGEVLMDFMEDESLSDEMEDAAARILDELVAALVAAFDASLEEKRAIVERHMARLEEELLKLA
# B11: GBRAP_83_6915 (protein)
# chain: MKEITVAAVGDHIDEAFDAAIDLKKEGVEKIIVEAIIKPEEVPRLLEAVKRALEAGVNLELEVFLEGATEEEAEEVEKKLKEIAKEAGKEVKVTVEVIEP
# B12: GBRAP_53_6417 (protein)
# chain: SEEELKKLKEEILKLAKEAGKAGPEEALKLTKEIGKKLKELKKAGASDEEITELAKEVAKLLKEAGAPDSVLVALANILAELGLDDATAEVVELIVEDLE
# B13: GBRAP_184_5220 (protein)
# chain: TTVRRAVEAETAEEAIAKADAVIAEAQAAGKKLELTVFLKNMSLEEIERVMAYLAEKKEAGLVESVTVVVLDERSEEEIDELVAIADKYGIRLVVALPDE
# B14: GBRAP_78_6572 (protein)
# chain: EVEELVDEAIEKLSKAATLLAKLNTPEAQEILAEVVDALSDLLEAEEEGFDLELLKRALEHVEKAIKLVKKVPEEEYKEILKLLEEAKELLKKAIELVEK
# B15: GBRAP_52_5857 (protein)
# chain: SSARMRALAEELLALRLAGKEEELEARVKELVATLSEEEILALLEELAALAKEADKEGAEAILDVAELLADEAEEAGFDEDELSYALAEVAAAAYKQLQK
# B16: GBRAP_125_3028 (protein)
# chain: HMEALAADLGRIARALGLSEGDVAELRENALAHGLKGAMIALALAEGDEELADLLEKLSEEEVAAVVRRLAAELAANPDLTPEEVRALLRRLAREAVAAS
# B17: GBRAP_78_6668 (protein)
# chain: EVEELVDKAVEELSKAARLALKLPEEHRNELLDLLVDAASYILEAEENGYDLELLKKAAEKLEEAIKLVEELNNEEYKPLLEELKKAKEYLEKAIKLLEK
# B18: GBRAP_52_6367 (protein)
# chain: MLEEAVEKLEKAVEAVLEGKEEEAEKILREIVENYSDEVILEAAERVAERIKGKTLEEAEAFLETALRLADIGDELGRDDVVLDEIEAIAARTYVEIKAK
# B19: GBRAP_160_4188 (protein)
# chain: EEEVEKLIKEIKEIAEEAIKLIEGETYEERLVIVRGAFGQIIMLVMESDAVSDEAEDKIAEITDEAVEYLDKNPELTEEEIKKLIKEATEKIIETIKKLS
# B20: GBRAP_125_3057 (protein)
# chain: SREEAIENLLRLARRLGLSDDDVEELRRIAEAGSVKNTLIAIALALGEEELADALEKLTEEEVIELLKRAAERLEENPELTPEEVKALLLELAEELLAKR
# B21: GBRAP_96_7100 (protein)
# chain: MLEEARRLVRELLEALDTDEERARELARELLEFPVEVIVEALVEEVKTPEEAYKLTRVLLSLGDPKAEEVALEFAEESDGERSKAVIEAMEEYEKEREAA
# B22: GBRAP_128_3486 (protein)
# chain: STEEVVAKTKELMEKIKNSSLEEVEEIARELVELLGQADPESREAATEVILEKLKELSAEKLEILADVLRERQPELDPFGAEQAAEIQVEALNEAEEKEE
# B23: GBRAP_39_5693 (protein)
# chain: EEDEENEDHVSYLQALAAKRLYETGISLEEATKEAKKILEEEAKRNPELKELLEELIKLAEEKGDEAKEVLIGVAVLIEEGEPKEEIKEHIEKAIKYFKK
# B24: GBRAP_78_6583 (protein)
# chain: ELEKLFDEIYAKLDEAHRLARQLPPDVRNEVLAELTEASSYLLEAEEEGNKLESLKEAIAALDEALAIARAADDPVAPALAAELDAAKALAEEALKLVKK
# B25: GBRAP_52_6142 (protein)
# chain: MREELRKIAEEILELVKEGKLEEAKKLADELVKTKNDEELKLFADEFAEVVRELRPEELDYAAKALEIIVDSMEKAGVDEKIISYVLGKGTRAMYEVELR
# B26: GBRAP_52_6307 (protein)
# chain: MEERMEALARELLALVRAGDLEGARELARELVETLSEEELLALAEALAKLAATADEEELDALAELLDILEDEMEKAGVDEGVIAEILGIITTALYEAELA
# B27: GBRAP_184_5140 (protein)
# chain: KTLRESIDAKTVEEAIKKAKEAFEKAKKENAKLVLFVFADGLSVEEVEKLMKELKKLIEEYGLKDATVILVVDADEEEADKIIEIADKYGIRVVVALNEE
# B28: GBRAP_128_3286 (protein)
# chain: APEELLKKVEELIEEIENSDEEEARKLAEELAELLGSVSVEEAEAIAEIIEEKLPELSKEKLEILAEVLDKARPKMTPEKAAIAADIASTALLEAEELEE
# B29: GBRAP_74_6522 (protein)
# chain: MDALLAALEAAAAAGDVAALVALLREIIATGDLATIERAARIAVAFVEAHLDALTPEELAALADALAELADRLMELGGDPATINAVAAAAVALEEALAAR
# Molecular target: GABARAP, O95166
# Sequence (O95166 whole entry, the tested form may be a part): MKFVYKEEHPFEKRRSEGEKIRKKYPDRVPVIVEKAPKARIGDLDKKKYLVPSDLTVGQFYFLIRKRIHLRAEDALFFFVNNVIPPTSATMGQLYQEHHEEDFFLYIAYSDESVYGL
# Test: median log2 fold change of GCK-ALFA target abundance (FLAG IP / Myc IP barcode read proportion) (log2 ratio); each designed protein is fused to an ALFA-tag nanobody in HEK293 cells to bring the named protein to FLAG-tagged glucokinase (GCK); Myc marks an untargeted standard; higher = target protein stabilised (more abundant)
# Settings: target protein: 3xFLAG-MCP-GCK-ALFA reporter; HEK293 landing pad (RPLP)
# How it was run: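 An ALFA-nanobody-fused binder library was recombined into HEK293 landing-pad cells and induced with 2 μg mL^−1 doxycycline. Cells were transfected with a plasmid expressing a FLAG-tagged target and a Myc-tagged standard. After 48 h, lysates underwent anti-FLAG and anti-Myc immunoprecipitation, and circular RNA barcodes were reverse transcribed, amplified and sequenced. Target abundance is the per-binder median log2 ratio of FLAG to Myc barcode read proportions. Barcodes needed ≥10^−7 proportion in both replicates, binders ≥3 barcodes per replicate, and a 10^−6 pseudocount was added; the two replicates were pooled.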
row,Binder,median log2 fold change
1,B1,-0.32
2,B2,-0.242
3,B3,0.346
4,B4,0.17
5,B5,0.275
6,B6,0.0447
7,B7,-0.0845
8,B8,-0.383
9,B9,-0.146
10,B10,0.191
11,B11,0.19
12,B12,0.0476
13,B13,-0.216
14,B14,0.141
15,B15,-0.305
16,B16,0.202
17,B17,-0.37
18,B18,-0.223
19,B19,0.0875
20,B20,0.137
21,B21,0.218
22,B22,0.224
23,B23,0.24
24,B24,0.0104
25,B25,0.151
26,B26,-0.37
27,B27,0.144
28,B28,0.00587
29,B29,0.209
